# Assay results reported in ChEMBL document CHEMBL4888484, “Replenishing the malaria drug discovery pipeline: Screening and hit evaluation of the MMV Hit Generation Library 1 (HGL1) against asexual blood stage Plasmodium falciparum ,using a nano luciferase reporter read-out” (2022).
# In all, about 150,000 compounds went through this assay and about 540 (0.36%) showed an effect of 50% or more. Some of the results follow.
# Test system: Plasmodium falciparum
# Assay: Primary screen in NF54 nanoGlo assay, in single point, at 2uM, 72h; a lower Z score goes with more inhibition
# Type: functional, Erythrocyte
# Conditions: timepoint 72 hour
Compound,% Inhibition [%],Z score
CCC(=O)N[C@@H]1c2ccccc2C2(CCN(C(=O)c3ccc(C)c(C)c3)CC2)[C@H]1OCc1cccnc1,14,-1.9
CCn1c(CN2C[C@H]3CC[C@@H](C2)[C@H]3O)nc2ccccc21,-3,0.34
CCNC(=O)NCC[C@H]1CN(C2Cc3ccccc3C2)CCO1,15,-2
NC(=O)Cn1ccnc1C1CCN(C(=O)c2cc3ccccc3s2)CC1,-12,2.14
COc1ccc(-c2cnnc(N3CC[C@@H]4CCCC[C@H]4C3)n2)cc1F,-15,1.73
CCCc1cc(C(=O)N2C[C@@H](CN3CCCN(C)CC3)[C@@H](CO)C2)cs1,2,-0.22
COc1ccc(C(=O)Nc2ccc(N3CCN(C(=O)c4cccc(Br)c4)CC3)nc2)c(OC)c1,-4,0.77
CCCCOc1c(Cl)cc(CNCCO)cc1OC,5,-0.88
CCNC(=O)c1cc2n(n1)C[C@@H](c1ccc(Br)cc1)OC2,-7,1.13
CC1CCCCN1C(=O)c1c(NC(=O)c2ccccc2F)sc2c1CCC(C(C)(C)C)C2 (stereo not given),-3,0.59
O=C(NCCc1cccs1)c1ccc2c3c(cccc13)CC2,-14,1.96
O=C(Nc1ccccc1O)[C@H]1CC(=O)N(c2[nH]nc3cc(Br)ccc23)C1,-8,0.86
CC(NC(=O)c1ccc2c(c1)OCO2)C1CCCO1 (stereo not given),-7,1.26
C[C@@H](c1cccs1)S(=O)(=O)Cc1cn2ccccc2n1,-8,1.18
O=C(NCC(F)F)c1ccccc1Cl,11,-2.21
O=C(Nc1cccnc1)c1ccc(-n2ccnc2-c2ccncc2)cc1,-27,3.43
Cc1ccccc1C(=O)Nc1sc2c(c1C(=O)N1CCCCC1)CC[C@H](C)C2,1,-0.15
CC(C)[C@H](CNC(=O)c1cnn(C)c1N)Cc1ccccc1,-12,1.18
COc1ccc2cc1Oc1cccc(c1)CO[C@H]1CN(CC(N)=O)C[C@@H]1NC(=O)CN(C)C2,4,-0.6
N#CCc1ncc(CCN2C(=O)c3ccccc3C2=O)s1,51,-6.59
CS(=O)(=O)c1ccc(CNC(=O)c2ccnn2C2CCC2)s1,2,-0.42
CCN(CC)c1ncc(CN2CCC(n3cncn3)CC2)s1,-7,0.6

Compound,% Inhibition [%],Z score
O=C(c1ccco1)N(Cc1cccc(OS(=O)(=O)c2ccc(F)cc2)c1)CC1CC1,-8,1.52
Cc1ccc(-n2cc3c(N4CCC(C(=O)NCc5cc(F)cc(F)c5)CC4)ncnc3n2)cc1,-5,0.5
COc1ccccc1NS(=O)(=O)c1cc(-c2nnc(-c3ccccc3)o2)ccc1OC,-2,0.34
O=C(NC1CCCCCC1)C1CCN(C(=O)c2ncn3c2CO[C@H](c2ccc(F)cc2)C3)CC1,-15,1.37
CCc1nccc(CN(C)CC[C@H](C)N2CCCC2)n1,-10,1.79
CCC#CCN1CCCn2nc(CN(C)C[C@H]3CC(=O)N(CC)C3)cc2C1,-14,1.31
Cc1ccc(C(=O)N2CC[C@H](N(C)C)[C@H](CCC(=O)O)C2)c(O)c1,-9,1.19
Cc1cc(NC(=O)c2nccnc2C(=O)O)nn1Cc1ccc(F)cc1Cl,-3,0.42
Cc1nn(C)cc1-c1cc(C(=O)Nc2ccc(-n3cc(Cl)cn3)cc2)no1,-1,0.12
Cc1nsc(NC(=O)NC2CC3CC3C2)c1C#N (stereo not given),0,0.04
O=C(Nc1ccccn1)[C@H]1CCc2[nH]cnc2C1,-5,0.86
O=C(CCc1ccncc1)NCC1CCN(C(=O)c2cn[nH]c2)CC1,8,-1.1
Cc1cnc(C(=O)N2CC(S(=O)(=O)CC(C)C)C2)cn1,-12,1.51
COc1ccc(-c2nsc3c2NC(=O)C[C@@H]3c2cc3c(c(OC)c2OC)OCO3)cc1,-8,0.92
CC1=C(C(=O)N2CC3(CCOC3)C2)CCC(C)(C)C1,-7,0.95
CC(C)c1cc(C(C)C)c(S(=O)(=O)n2nc(Nc3ccccc3)cc2Nc2ccccc2)c(C(C)C)c1,-8,1.19
COc1ccc(N(CN2C(=O)C3CCCCC3C2=O)C(C)=O)cc1 (stereo not given),-10,1.41
CC(C)(C[C@H]1CCCN(c2ncnc3c2CCCC3)C1)C(N)=O,1,-0.16
O=C(COC[C@H]1CCCCO1)N1CCc2[nH]nc(C3CCCC3)c2C1,-1,0.19
C=CCOc1c(CC=C)cc(CNCc2nncn2CCOC)cc1OCC,-6,0.81
CS(=O)(=O)Nc1ccc(N2CCCCCCC2)c(C(=O)O)c1,-16,1.58
Cc1ccc(S(=O)(=O)NC[C@H](O)c2ccc3c(c2)CCO3)s1,-19,2.48

Compound,% Inhibition [%],Z score
CCC1(CC)C(NC(=O)c2c[nH]c(C#N)c2)C(C)C1OC (stereo not given),-12,1.34
CC(=O)[C@@H]1CCCCN1S(=O)(=O)CC(C)(C)C(C)(F)F,-8,1.06
CC(=O)N1CCN(C(=O)N[C@@H](C)c2ccc(Cl)s2)CC1,4,-0.62
C=C(C)CN(CC)S(=O)(=O)N1CC(C)OC(C)C1 (stereo not given),-14,1.88
Cc1nc(C#N)n(CC(=O)N(C)Cc2cccs2)c1C,4,-0.44
Cc1ccc2nc(NC(=O)CCc3ccc(S(=O)(=O)N4CCCC4)cc3)sc2c1,-14,1.46
CCn1cc(C(=O)Nc2cnn(C(C)C)c2)cn1,-5,0.88
CC(C)(C)CCNC(=O)CC[C@H]1CCCO1,-10,1.94
O=C(Cn1ccnc1)N1CCC[C@H](CCc2noc(-c3ccccn3)n2)C1,0,0
CN=C(NC)NCc1ccccc1Cl,-6,1.02
Cc1cccc2c1CCN(C(=O)[C@H]1CCn3c(cnc3C)C1)C2,-2,0.34
COC(=O)c1ccc(NC(=O)C[C@@H]2N=C(O)N(CCc3ccccc3)C2=O)cc1,2,-0.2
Cn1c(CCc2cccc(NC(=O)c3n[nH]c4c3CCCC4)c2)nc2ccccc21,-11,1.26
COc1cccc(CC(=O)N(C)[C@H]2CCOC(C)(C)C2)c1,0,-0.01
C=CCCS(=O)(=O)NC1(c2cccc(OC)c2)CC1,-9,1.62
CC1(C)NC(=O)N(CC(=O)N2CCC[C@H]2c2nnc3ccccn23)C1=O,-5,0.65
Cc1cccc(OCCc2nnc([C@H](C)Oc3ccccc3F)o2)c1,-6,1.09
Cc1cccn2cc(C(=O)N3CCn4ccnc4C3)cc12,-2,0.27
Cc1nn(C)cc1NC(=O)N1CCCC1CC(O)c1ccc(F)cc1 (stereo not given),38,-3.23
O=C(CS(=O)(=O)c1cccc2nsnc12)Nc1ccc(F)cc1,-3,0.41
Cn1c(NC(=O)C2CC23CCOC3)nc2cccnc21 (stereo not given),-5,0.48
COc1cn(C)c(C(=O)NCCC(c2ccccc2)c2ccccc2)cc1=O,5,-0.66

Compound,% Inhibition [%],Z score
CN(Cc1cc[nH]n1)C(=O)CCc1ccc(-c2ccc(Cl)cc2)[nH]1,-8,0.74
Cc1cccc(-n2nc3nc(NC4CCCC4)nc(-c4cccc(F)c4)c3c2N)c1,4,-0.63
CCC[C@H]1CCc2c([nH]c3ccccc3c2=O)O1,-7,0.98
O=C(O)c1ccn(-c2nc(-c3ccco3)cc(C(F)F)n2)n1,-27,3.13
Cn1cc(S(=O)(=O)N2CCCCC2)cc1C(=O)NCCc1ccc2[nH]ncc2c1,5,-0.61
O=C(NCC1CC1c1ccccc1)c1nccn2ccnc12 (stereo not given),-2,0.31
Cc1cc(C(F)(F)F)c(C#N)c(N)c1C#N,-15,1.92
COc1cn(CC(=O)NC2CCCC2)c(CN2CCOCC2)cc1=O,-8,0.84
CC(C)(C)CN1CCC[C@@](O)(CN2CCOCC2)C1=O,0,-0.07
CCN(C(=O)Nc1cc(C)ccc1F)C1CCOCC1,-9,1.03
O=C(Cc1ccccc1)Nc1c(-c2ccc3c(c2)OCO3)n[nH]c1C1CC1,2,-0.42
CNC(=O)c1ccccc1-c1cccc2ccsc12,5,-0.75
COC[C@H]1CCCN(c2ccnc(C(N)=O)c2)CC1,0,-0.06
CC(C)(C)OC(=O)N1CCCC(C2CCCCN2C(=O)CO)C1 (stereo not given),-8,0.83
CNc1cc([C@H]2C[C@@H](Nc3noc(C4CC4)n3)C2)nc(N)n1,1,-0.18
CCOc1cccc([C@H]2NC3(CCCC3)C(=O)N2C)c1O,-17,1.45
COc1cc(C(=O)NCCc2noc(C(C)C)n2)ccn1,10,-1.36
CC1C(c2ccccc2)NC(c2ccccc2)CC1(O)Cc1ccccc1Cl (stereo not given),-16,2.1
CCOc1ccc(NC(=O)N[C@H]2CN(C(C)C)C[C@@H]2OC)cc1C#N,-19,1.83
